Literature values, collected in PubChem BioAssay AID1259410 (Chemical Carcinogenesis Research Information System (CCRIS), 2018).
This continues a long series; more values of the same kind are listed elsewhere.

Test system: rodent tumor promotion studies, tumor incidence
Experiment: CCRIS tumor promotion studies
Settings: Doses [Promoter]: 0, Doses [Promoter]: 0, Route [Carcinogen]: DERMAL, Route [Promoter]: DERMAL, Species: MOUSE, Strain/Sex: CD-1/FEMALE
Text: The CCRIS database contains chemical records with carcinogenicity, mutagenicity, tumor promotion, and tumor inhibition test results. It was developed by the National Cancer Institute (NCI). Data are derived from studies cited in primary journals, current awareness tools, NCI reports, and other sources. Test results have been reviewed by experts in carcinogenesis and mutagenesis.
CCRIS provides historical information from the years 1985 - 2011. It is no longer updated.
This is an archive assay for CCRIS tumor promotion studies.

Compound: CCCCCCCCCCCCCC(=O)O[C@@H]1[C@@H](C)[C@@]2(O)[C@@H](C=C(CO)C[C@]3(O)C(=O)C(C)=C[C@@H]23)[C@@H]2C(C)(C)[C@]12OC(C)=O
- outcome (Carcinogen: 2'-(4-NITROPHENOXY)OXIRANE, 59485-08-4, Carcinogen: 2'-(4-NITROPHENOXY)OXIRANE, 59485-08-4, Doses [Carcinogen]: 1, 2 UMOL IN 0.2 ML 15% DMSO IN ACETONE 1/WK FOR 5 WK, Doses [Carcinogen]: 1, 2 UMOL IN 0.2 ML 15% DMSO IN ACETONE 1/WK FOR 5 WK, 15 NMOL IN 0.1 ML ACETONE ONCE 18-24 HR PRIOR TO EACH CARCINOGEN DOSE THEN 2/WK FOR DURATION OF STUDY (STUDY DURATION, 15 NMOL IN 0.1 ML ACETONE ONCE 18-24 HR PRIOR TO EACH CARCINOGEN DOSE THEN 2/WK FOR DURATION OF STUDY (STUDY DURATION): skin: papilloma, carcinoma
- outcome (Carcinogen: 2'-(NITROPHENOXY)OXIRANE, 59485-08-4, Carcinogen: 2'-(NITROPHENOXY)OXIRANE, 59485-08-4, Doses [Carcinogen]: 2 UMOL IN 0.2 ML 15% DMSO IN ACETONE ONCE, 15 NMOL IN 0.1 ML ACETONE ONCE 18-24 HR PRIOR TO CARCINOGEN DOSE THEN 2/WK FOR DURATION OF STUDY (STUDY DURATION: 30, 15 NMOL IN 0.1 ML ACETONE ONCE 18-24 HR PRIOR TO CARCINOGEN DOSE THEN 2/WK FOR DURATION OF STUDY (STUDY DURATION: 30): skin: papilloma
- outcome (Carcinogen: 3,4-DIHYDRO-DIBENZ[C,H]ACRIDINE, 76186-82-8, Carcinogen: 3,4-DIHYDRO-DIBENZ[C,H]ACRIDINE, 76186-82-8, Doses [Carcinogen]: 0, 50, 200 NMOL IN 0.2 ML ACETONE ONCE (STUDY DURATION: 150 D), Doses [Carcinogen]: 0, 50, 200 NMOL IN 0.2 ML ACETONE ONCE (STUDY DURATION: 150 D), 16 NMOL IN 0.2 ML ACETONE 2/WK FOR 20 WK BEGINNING 10 D POST CARCINOGEN DOSE (STUDY DURATION: 150 D), 16 NMOL IN 0.2 ML ACETONE 2/WK FOR 20 WK BEGINNING 10 D POST CARCINOGEN DOSE (STUDY DURATION: 150 D)): skin: papilloma
- outcome (Carcinogen: 4-NITROPHENYL VINYL ETHER, 940-14-7, Carcinogen: 4-NITROPHENYL VINYL ETHER, 940-14-7, Doses [Carcinogen]: 1, 2 UMOL IN 0.2 ML 15% DMSO IN ACETONE 1/WK FOR 5 WK, Doses [Carcinogen]: 1, 2 UMOL IN 0.2 ML 15% DMSO IN ACETONE 1/WK FOR 5 WK, 15 NMOL IN 0.1 ML ACETONE ONCE 18-24 HR PRIOR TO EACH CARCINOGEN DOSE THEN 2/WK FOR DURATION OF STUDY (STUDY DURATION, 15 NMOL IN 0.1 ML ACETONE ONCE 18-24 HR PRIOR TO EACH CARCINOGEN DOSE THEN 2/WK FOR DURATION OF STUDY (STUDY DURATION): skin: papilloma, carcinoma
- outcome (Carcinogen: 4-NITROPHENYL VINYL ETHER, 940-14-7, Carcinogen: 4-NITROPHENYL VINYL ETHER, 940-14-7, Doses [Carcinogen]: 2 UMOL IN 0.2 ML 15% DMSO IN ACETONE ONCE, 15 NMOL IN 0.1 ML ACETONE ONCE 18-24 HR PRIOR TO CARCINOGEN DOSE THEN 2/WK FOR DURATION OF STUDY (STUDY DURATION: 30, 15 NMOL IN 0.1 ML ACETONE ONCE 18-24 HR PRIOR TO CARCINOGEN DOSE THEN 2/WK FOR DURATION OF STUDY (STUDY DURATION: 30): skin: papilloma
- outcome (Carcinogen: (1AR,2R,3S,13CS)-1A,2,3,13C-TETRAHYDROBENZ[C]OXIRENO[5,6]BENZ[1,2-H]ACRIDINE-2,3 -DIOL, 93780-96-2, Carcinogen: (1AR,2R,3S,13CS)-1A,2,3,13C-TETRAHYDROBENZ[C]OXIRENO[5,6]BENZ[1,2-H]ACRIDINE-2,3 -DIOL, 93780-96-2, Doses [Carcinogen]: 0, 50, 200 NMOL IN 0.2 ML ACETONE ONCE (STUDY DURATION: 150 D), Doses [Carcinogen]: 0, 50, 200 NMOL IN 0.2 ML ACETONE ONCE (STUDY DURATION: 150 D), 16 NMOL IN 0.2 ML ACETONE 2/WK FOR 20 WK BEGINNING 10 D POST CARCINOGEN DOSE (STUDY DURATION: 150 D), 16 NMOL IN 0.2 ML ACETONE 2/WK FOR 20 WK BEGINNING 10 D POST CARCINOGEN DOSE (STUDY DURATION: 150 D)): skin: papilloma
- outcome (Carcinogen: (1AR,2S,3R,13C)-1A,2,3,13C-TETRAHYDROBENZ[C]OXIRENO[5,6]BENZ[1,2-H]ACRIDINE-2,3- DIOL, 93780-98-4, Carcinogen: (1AR,2S,3R,13C)-1A,2,3,13C-TETRAHYDROBENZ[C]OXIRENO[5,6]BENZ[1,2-H]ACRIDINE-2,3- DIOL, 93780-98-4, Doses [Carcinogen]: 0, 50, 200 NMOL IN 0.2 ML ACETONE ONCE (STUDY DURATION: 150 D), Doses [Carcinogen]: 0, 50, 200 NMOL IN 0.2 ML ACETONE ONCE (STUDY DURATION: 150 D), 16 NMOL IN 0.2 ML ACETONE 2/WK FOR 20 WK BEGINNING 10 D POST CARCINOGEN DOSE (STUDY DURATION: 150 D), 16 NMOL IN 0.2 ML ACETONE 2/WK FOR 20 WK BEGINNING 10 D POST CARCINOGEN DOSE (STUDY DURATION: 150 D)): skin: papilloma
- outcome (Carcinogen: (1AR,13CS)-1A,2,3,13C-TETRAHYDROBENZ[C]OXIRENO[5,6]BENZ[1,2-H]ACRIDINE, 93781-04-5, Carcinogen: (1AR,13CS)-1A,2,3,13C-TETRAHYDROBENZ[C]OXIRENO[5,6]BENZ[1,2-H]ACRIDINE, 93781-04-5, Doses [Carcinogen]: 0, 50, 200 NMOL IN 0.2 ML ACETONE ONCE (STUDY DURATION: 150 D), Doses [Carcinogen]: 0, 50, 200 NMOL IN 0.2 ML ACETONE ONCE (STUDY DURATION: 150 D), 16 NMOL IN 0.2 ML ACETONE 2/WK FOR 20 WK BEGINNING 10 D POST CARCINOGEN DOSE (STUDY DURATION: 150 D), 16 NMOL IN 0.2 ML ACETONE 2/WK FOR 20 WK BEGINNING 10 D POST CARCINOGEN DOSE (STUDY DURATION: 150 D)): skin: papilloma
- outcome (Carcinogen: (1AS,2R,3S,13CR)-1A,2,3,13C-TETRAHYDROBENZ[C]OXIRENO[5,6]BENZ[1,2-H]ACRIDINE-2,3 -DIOL, 93781-00-1, Carcinogen: (1AS,2R,3S,13CR)-1A,2,3,13C-TETRAHYDROBENZ[C]OXIRENO[5,6]BENZ[1,2-H]ACRIDINE-2,3 -DIOL, 93781-00-1, Doses [Carcinogen]: 0, 50, 200 NMOL IN 0.2 ML ACETONE ONCE (STUDY DURATION: 150 D), Doses [Carcinogen]: 0, 50, 200 NMOL IN 0.2 ML ACETONE ONCE (STUDY DURATION: 150 D), 16 NMOL IN 0.2 ML ACETONE 2/WK FOR 20 WK BEGINNING 10 D POST CARCINOGEN DOSE (STUDY DURATION: 150 D), 16 NMOL IN 0.2 ML ACETONE 2/WK FOR 20 WK BEGINNING 10 D POST CARCINOGEN DOSE (STUDY DURATION: 150 D)): skin: papilloma
